Experimental data: PubChem BioAssay AID488969 (Vanderbilt High Throughput Screening Facility, 2010)
Several values for one entry are separate records, joined by “and”; a condition that tells them apart may be missing. Identical values can stand only once. In all, about 110,000 compounds were measured (“z-score”: median about -0.1, highest 2% from about 2 on). This is one part of the list.

What follows are molecules tested against Metabotropic glutamate receptor 8 (Rattus norvegicus) (UniProt P70579) (assay: mGluR8 Gi/Go-coupled signaling modulation – cell-based, rat, thallium flux, HTS, primary screen (AID 488969)). Conditions: HEK293 rat mGluR8, GIRK (G protein-gated inwardly rectifying potassium channel) thallium flux, FluoZin2; at 10 µM; stronger effect = higher value; submaximal glutamate (EC20) added with thallium.
Sequence of UniProt P70579 (P70579 whole entry, looked up): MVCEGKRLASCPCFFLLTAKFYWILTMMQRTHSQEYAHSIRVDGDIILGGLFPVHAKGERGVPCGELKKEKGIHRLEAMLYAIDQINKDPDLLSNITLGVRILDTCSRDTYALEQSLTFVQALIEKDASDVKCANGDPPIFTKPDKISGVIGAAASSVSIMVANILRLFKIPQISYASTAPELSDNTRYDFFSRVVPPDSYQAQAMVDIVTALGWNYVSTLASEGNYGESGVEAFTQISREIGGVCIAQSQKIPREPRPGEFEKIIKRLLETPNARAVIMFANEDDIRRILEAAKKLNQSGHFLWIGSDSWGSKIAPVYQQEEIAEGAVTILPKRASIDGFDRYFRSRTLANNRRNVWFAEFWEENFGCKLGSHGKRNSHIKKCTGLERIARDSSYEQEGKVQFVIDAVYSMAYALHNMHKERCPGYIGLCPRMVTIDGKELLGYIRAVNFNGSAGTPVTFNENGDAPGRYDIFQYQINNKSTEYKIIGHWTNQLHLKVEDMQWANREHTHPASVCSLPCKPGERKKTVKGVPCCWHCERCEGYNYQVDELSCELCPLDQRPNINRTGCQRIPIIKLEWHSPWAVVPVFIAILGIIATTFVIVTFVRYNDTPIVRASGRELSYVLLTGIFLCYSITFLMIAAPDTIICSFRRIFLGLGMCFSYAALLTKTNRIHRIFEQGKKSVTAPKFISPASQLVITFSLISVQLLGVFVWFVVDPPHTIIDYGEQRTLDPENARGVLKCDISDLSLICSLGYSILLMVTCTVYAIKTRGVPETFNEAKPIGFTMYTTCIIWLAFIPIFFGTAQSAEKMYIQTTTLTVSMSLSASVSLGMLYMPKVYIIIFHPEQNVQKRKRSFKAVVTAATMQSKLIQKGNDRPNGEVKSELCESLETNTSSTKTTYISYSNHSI
`CCCCOc1ccc2ccccc2c1C=O` gave a z-score of -0.427. `C=CCn1c(N)c(C(=O)Nc2ccccc2OC)sc1=S` was tested, and the z-score was 0.333. With `COc1cc2c(cc1OC)CN(CC(=O)Nc1ccc3c(c1)OC(F)(F)O3)CC2` the z-score was -0.249. `O=C(Nc1nccs1)c1cccc(N2C(=O)C3C4C=CC(C4)C3C2=O)c1` (stereo unspecified) gave a z-score of -0.0728. With `Cc1ccc(C2=NN(CC(=O)NCc3cccnc3)C(=O)CC2)cc1` the z-score was -0.0412. `Cc1cc(C)c(S(=O)(=O)N2CCCCC2)c(C)c1N(C)S(=O)(=O)c1ccccc1` gave a z-score of -0.375. `N#Cc1nc(COc2ccc(Cl)cc2)oc1N1CCCCCC1` showed a z-score of -0.453. Work on `Cc1ccc(N(CCC#N)C(=O)CSc2ccc3c(c2)OCCO3)cc1` yielded a z-score of -0.201. With `COc1ccc(N(C(=O)C(C)C)S(=O)(=O)c2ccc3c(c2)n(C)c(=O)n3C)cc1` the z-score was 0.192. Work on `CC1=C(C)CC(C(=O)NCC(=O)c2ccccc2)C(C(=O)O)C1` (stereo unspecified) yielded a z-score of 0.264. `CCOc1ccccc1Nc1ncccc1C(=O)N1CCCC1` gave a z-score of 1.1. Work on `Cn1cnc([N+](=O)[O-])c1Sc1ccccc1` yielded a z-score of 0.0869. `O=C1c2ccccc2C(=O)N1CCc1nn[nH]n1` was tested, and the z-score was -0.346. Work on `Cc1cc(C(=O)OCCO)c(C#N)c(N)n1` yielded a z-score of 0.857. With `O=CN1CCN(C2CC(=O)N(c3ccc4c(c3)OCO4)C2=O)CC1` (stereo unspecified) the z-score was 0.502. Molecule `O=S(=O)(NCc1ccc2c(c1)OCO2)c1cccc2cccnc12` has a z-score of 0.102. Molecule `CN(C)CCN(Cc1ccccc1)c1ccnc(N(C)C)c1C#N` has a z-score of 0.043. `O=C(NNS(=O)(=O)c1ccccc1[N+](=O)[O-])c1ccc(O)cc1` was tested, and the z-score was -0.424. With `O=C(C1CCN(S(=O)(=O)c2cccnc2)CC1)N1CCN(C2CCCC2)CC1` the z-score was -0.318. `O=C(c1ccc(Cl)c(S(=O)(=O)Nc2ccc(F)cc2)c1)N1CCN(c2ccccn2)CC1` showed a z-score of -0.254. `CCOc1ccc(CCNC(=O)CSc2cc(=O)n(C)c3ccccc23)cc1OCC` gave a z-score of -0.0411. Work on `O=C(C[n+]1ccc2ccccc2c1)Nc1cc(C(F)(F)F)ccc1Cl` yielded a z-score of -0.746. Molecule `O=C(Nc1ccccc1)C1CC(=O)n2ncnc2N1` (stereo unspecified) has a z-score of -0.09. For `CCn1c(C)nc2c1C(=O)c1ccccc1C2=O`, the z-score was -0.0161. `CC1CCCCN1CCNC(=O)c1ccc2c(=O)n(CCc3ccccc3)c(=O)[nH]c2c1` (stereo unspecified) was tested, and the z-score was 0.188. For `Oc1[nH]c2ccccc2c1/C=N/N1CCCCC1`, the z-score was -0.215. In the case of `COc1cccc(NC(=O)c2cnsn2)c1`, the z-score is reported as -0.046. In the case of `N#Cc1c(N)nc2c(c1N)CC(CCl)O2` (stereo unspecified), the z-score is reported as -0.0539. Work on `CC1(C)COC(c2cccn2Cc2ccccc2Cl)=N1` yielded a z-score of -0.0723. Work on `Cc1nc(N2C(=O)C(=O)/C(=C(/O)c3ccccc3)C2c2ccco2)sc1C` (stereo unspecified) yielded a z-score of -0.802. `CC(C)N(C(=O)Cn1c(SCC(=O)NCc2ccc3c(c2)OCO3)nc2ccccc21)C(C)C` was tested, and the z-score was 0.0294. In the case of `CC(=O)Nc1ccc(S(=O)(=O)N2CCc3c(Cl)cccc3C2)cc1`, the z-score is reported as 0.212. With `CC(C)(C)C(=O)[C@H]1[C@H](c2ccccc2)[C@@]2(N=C(c3ccccc3)OC2=O)C2c3ccccc3C=NN21` (stereo partly specified) the z-score was -0.0699. Molecule `CCOc1c(CNCCNC(=O)c2nonc2N)cccc1OC` has a z-score of -0.21. Molecule `CCCC(=O)Nc1ccc(NC(=O)Cc2ccccc2)cn1` has a z-score of -0.239. `Oc1ccccc1/C=N/n1c(-c2cccs2)n[nH]c1=S` gave a z-score of 0.8. `Cc1cc(C(=O)NCC(C)C)c2ccccc2n1` was tested, and the z-score was -0.15. With `Cc1ccc(-n2sc3ccccc3c2=O)cc1S(=O)(=O)N1CCCCC1` the z-score was 0.479. Molecule `Cc1cn2c(-c3ccc(Cl)cc3)nnc2s1` has a z-score of -0.431. In the case of `Cc1ccc(N=C2SCCCN2C(=O)c2ccco2)cc1Cl`, the z-score is reported as 0.956. With `Cc1nc2cc(C(=O)O)ccc2n1-c1ccc(F)cc1F` the z-score was -0.0543. Molecule `Cc1cccc(C)c1NC(=S)N(C)CCc1ccccn1` has a z-score of -0.153. Molecule `Cn1nc(-c2ccc(Cl)cc2)c2cc(C(=O)NCC3CCCO3)sc21` (stereo unspecified) has a z-score of -0.177. Work on `COCCn1c(SCC(=O)c2c[nH]c3ccccc23)nnc1-c1ccncc1` yielded a z-score of -0.309. In the case of `Cc1cc(N/C=C/C(=O)c2ccc(Br)cc2)no1`, the z-score is reported as -0.0465. With `COc1cc(C2/C(=C(/O)c3ccc(F)cc3)C(=O)C(=O)N2CCCC(=O)O)ccc1O` (stereo unspecified) the z-score was -0.85. With `Cc1cc(Cl)ccc1OCC(=O)NC(=S)Nc1ccccc1N1CCOCC1` the z-score was 0.195. With `CSc1nc(C)cc(Oc2ccc(OCCOc3ccccc3)nn2)n1` the z-score was -0.702. For `Cc1ccc(NC(=O)C2CCCN(S(=O)(=O)c3cnc[nH]3)C2)cc1C` (stereo unspecified), the z-score was -0.189. For `COC(=O)/C=C1/SC(=Nc2ccc(C)cc2C)NC1=O`, the z-score was 0.161. `COc1cccc(-n2c(C)nc3c(cnn3-c3ccc(Cl)cc3)c2=O)c1` was tested, and the z-score was 0.188. `CCCN1C(=O)c2cc(C(=O)NCc3cccs3)ccc2C1O` (stereo unspecified) gave a z-score of 0.00391. `COc1ccc(S(=O)(=O)NCCSc2ccc(C)cc2)cc1OC` showed a z-score of -0.805. `CCOC(=O)C(=O)/C(=C\N(C)C)c1onc(-c2ccccc2)c1C(=O)OC` was tested, and the z-score was -0.0619. `CCCCNS(=O)(=O)c1ccc(OC)c2ncccc12` showed a z-score of 0.248. Work on `COCCNc1nc(C(C)(C)C)nc2c1nnn2Cc1ccccc1Cl` yielded a z-score of 0.404. `COc1ccccc1-c1noc(CCC(=O)Nc2ccccc2Cl)n1` showed a z-score of -0.687. Molecule `COc1ccc(OC)c(S(=O)(=O)N(C)CC(=O)N2CCc3ccccc3C2)c1` has a z-score of 0.264. In the case of `O=C(CCC(=O)N1CCN(S(=O)(=O)c2ccc(Cl)cc2)CC1)NC1CCCc2ccccc21` (stereo unspecified), the z-score is reported as 0.0235. `CCn1c(=O)c(C(C)=O)nc2ccccc21` showed a z-score of -0.0198. With `O=C(CN1C(=O)NC2(CCCC2)C1=O)Nc1nc(-c2ccc(F)cc2)cs1` the z-score was -0.141. `OC1(c2cccc(C(F)(F)F)c2)CCNCC1` gave a z-score of -0.227. `COC(=O)C(C)N1C(=O)S/C(=C/c2cc(C)n(-c3ccccn3)c2C)C1=O` (stereo unspecified) gave a z-score of 1.27. Work on `Cn1nc(CC(=O)NC2CCCCCCCCCCC2)c2ccccc2c1=O` yielded a z-score of 0.00205. Work on `COCCCNC(=O)Cn1nnc(-c2ccc(NC(=O)c3ccccc3F)cc2)n1` yielded a z-score of -0.635. For `Nc1cc(C(=O)c2ccccc2)ccc1N1CCOCC1`, the z-score was -0.0635. With `CC(=O)OCC(=O)NCc1ccc2c(c1)OCO2` the z-score was 0.165. For `OCC1(C2=NOC(O)(C(F)(F)F)C2)CCCCC1` (stereo unspecified), the z-score was 0.325. `COc1ccc(Sc2nnc(Cc3ccccc3)c3ccccc23)cc1` showed a z-score of -0.186. For `Cc1c(C(=O)OCCOc2ccccc2)[nH]c2c1C(=O)CCC2`, the z-score was 0.00319. `O=C(NCCCCC(NC(=O)c1ccc([N+](=O)[O-])cc1)C(=O)O)c1ccc([N+](=O)[O-])cc1` (stereo unspecified) gave a z-score of -0.171. For `O=c1c2c(nc3nc(COc4ccccc4)[nH]n13)CCC2`, the z-score was -1.15. `Cc1c(C(=O)O)oc2c1C(O)CC(C)(C)C2` (stereo unspecified) was tested, and the z-score was 1.41 and 0.851. In the case of `COc1ccc(C(=O)CCC(=O)O)c(C)c1`, the z-score is reported as 0.03. `Cc1ccc(S(=O)(=O)N2CCCN(S(=O)(=O)c3ccc4ccccc4c3)CC2)cc1` was tested, and the z-score was -0.159. `CC(C)c1ccc(C2CC(=O)N3CN(C)CSC3=C2C#N)cc1` (stereo unspecified) showed a z-score of -0.145. Molecule `Cc1nn(Cc2ccccc2Cl)c(C)c1NC(=O)C1C2CCC(O2)C1C(=O)O` (stereo unspecified) has a z-score of -0.217. Molecule `CC(C)Cc1nnc(NC(=O)CS(=O)(=O)Cc2ccccc2)s1` has a z-score of -0.0843. `O=C1CN(C(=O)CC2c3ccccc3-c3ccccc32)CC(=O)N1` gave a z-score of 0.0971. In the case of `CCc1cccc2c(C(=O)COC(=O)/C=C/c3ccc(O)c(OC)c3)c[nH]c12`, the z-score is reported as 0.418. With `Cc1cccc(OCC(=O)Nc2ccc(C(=O)NCc3cccnc3)cc2)c1` the z-score was -0.0795. Work on `Cc1ccc(NC(=S)NNC(=O)c2c([N+](=O)[O-])c(C)nn2C)cc1` yielded a z-score of -0.131. `Cc1ccc(C(=O)N/C(=C\c2ccc(-c3ccc([N+](=O)[O-])cc3)o2)C(=O)NC2CCS(=O)(=O)C2)cc1` (stereo unspecified) gave a z-score of -1.56. Work on `CCn1nc(C(=O)OCC(=O)Nc2nc(-c3ccc(OC)cc3)cs2)c2ccccc2c1=O` yielded a z-score of -0.337. With `C=C(C)c1cccc(C(C)(C)NC(=O)NCc2ccc(OC)c(OC)c2)c1` the z-score was -0.0899. Molecule `O=C1C2CC=C(Cl)CC2C(=O)N1CN(Cc1ccco1)CN1C(=O)C2CC=C(Cl)CC2C1=O` (stereo unspecified) has a z-score of 0.00833. Molecule `CCOc1ccc(N2C(=O)c3cccnc3C2Nc2ccc(C)c(C)c2)cc1` (stereo unspecified) has a z-score of -0.171. Work on `C=CCn1cc(C(=O)OC)c(=O)c2cc(S(=O)(=O)N3CCC(C)CC3)ccc21` yielded a z-score of -0.336. Molecule `O=C(COc1ccc(Cl)cc1)Nc1ccccc1C(=O)NCc1ccco1` has a z-score of -0.123. `O=C(Nc1cccc(S(=O)(=O)N2CCCC2)c1)c1ccc2c(=O)n3c(nc2c1)CCCCC3` gave a z-score of -1.24. For `CCCCOc1cccc(/C=N/NC(=O)c2csc(C)c2C)c1`, the z-score was -0.0133. `Cc1ccccc1NC(=O)C1C2CCC(O2)C1C(=O)O` (stereo unspecified) showed a z-score of 0.0158. `Cc1nnc(NC2CCCCC2)[nH]c1=O` showed a z-score of 0.729. Work on `Cn1c(NCc2cccc(Br)c2)nc2ccccc21` yielded a z-score of -0.712. With `COc1ccccc1C(=O)Nc1cc(-c2nn3c(C)nnc3s2)ccc1C` the z-score was -1.43. For `COc1ccc(N2C(=O)CC(N3CCC(O)(c4ccc(Cl)cc4)CC3)C2=O)cc1` (stereo unspecified), the z-score was -0.121. `CC(=O)c1ccc(N2CCN(S(=O)(=O)c3cccc(S(=O)(=O)N4CCOCC4)c3)CC2)cc1` showed a z-score of 0.167. In the case of `O=C(O)Cc1sc(-c2ccccc2)nc1-c1ccccc1`, the z-score is reported as -0.192. `CC(Sc1ccccc1)C(=O)Nc1ccc(S(=O)(=O)N2CCOCC2)cc1` (stereo unspecified) gave a z-score of 0.0953. With `Nc1nnc(-c2ccccc2)s1` the z-score was -0.337. Molecule `COc1ccc(-c2nn(CCC(=O)O)cc2/C=C2\SC(N)=NC2=O)cc1` has a z-score of -0.114. Work on `O=C(CN1CCN(c2ccc(F)cc2)CC1)OCc1ccccc1` yielded a z-score of -0.253. `CC(Sc1nnc(Cc2cccs2)n1C1CCCCC1)C(N)=O` (stereo unspecified) was tested, and the z-score was -0.262. Molecule `O=C(Nc1cccc(-c2nc3ccccc3s2)c1)c1ccc2c(c1)OCO2` has a z-score of -0.76. `CCOC(=O)c1c(C)cc(C)n2c1nc1ccccc12` gave a z-score of -0.141. For `CCOC(=O)c1oc2c(O)c(O)ccc2c(=O)c1-c1nncn1-c1ccccc1`, the z-score was -0.05. `O=C(N/N=C/c1cccc([N+](=O)[O-])c1)c1cccs1` was tested, and the z-score was 0.379. For `Cc1cccc(-n2c(N)cc(=O)nc2SCC(=O)Nc2ccccc2)c1`, the z-score was -0.48. Molecule `c1ccc(CC2CCN(c3nc4ccccc4n4nnnc34)CC2)cc1` has a z-score of -0.147. Molecule `Fc1ccccc1N1CCN(CC2CC3C=CC2C3)CC1` (stereo unspecified) has a z-score of -0.343. `Cc1ccc(OCC(O)CN2CC3(C)CC2CC(C)(C)C3)cc1` (stereo unspecified) showed a z-score of 0.105.
